Data published in paper PMC12040169 (PLOS Biology, 2025).
This is one part of the list.

Test system: T1, C. trachomatis L2/434/Bu expressing GFP (CTL2-GFP)
T1 construct: L2/434/Bu GFP intracellular growth in HeLa cells
Design: species or system HeLa; C. trachomatis total inclusion area by high-content imaging, normalised to DMSO
Settings: total inclusion area; 28.5 h, 10 µM; inhibitor
Summary of the method: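 Imaging read-out: GFP inclusions and Hoechst nuclei captured by high-content imaging after fixation. Inclusion area/number = chlamydial growth; nuclei count = host cell viability. MIC calculated per earlier method.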

Row | SMILES | % of control remaining
1 | O=C(C1=C(O)C(=O)N(Cc2cccnc2)C1c1ccc(Cl)cc1Cl)c1ccccc1 (stereo not shown) [CBK263367] | 101.602
2 | COCCNC(=O)c1ccc(-c2cc(C)cs2)nc1NCC1CC1 [CBK106259] | 85.3844
3 | Cc1ccc(CC(=O)N2CCC(c3ncc(C(=O)Nc4ccc(F)cc4)c(C)n3)CC2)cc1 [CBK285884] | 89.4282
4 | COc1ccc2cc3c(nc2c1)OC(=O)N(CC1CC1)C3 [CBK282432] | 3.966
5 | O=C(C1CCCCC1)N1CCC(c2nnc(-c3ccsc3)o2)CC1 [CBK283380] | 119.047
6 | CS(=O)(=O)c1ccc(Nc2ncnc(N3CCC(Sc4ccccc4)CC3)c2[N+](=O)[O-])cc1 [CBK113567] | 113.026
7 | O=C(c1cc(Cl)c[nH]1)N1CCN(Cc2cc(=O)n3ccsc3n2)CC1 [CBK306313] | 102.847
8 | O=C(CN1C2CCC1CC(O)(c1ccco1)C2)N1CCCC1 (stereo not shown) [CBK284042] | 80.6873
9 | Oc1cccc(OCCOc2cc(C(F)(F)F)ccn2)c1 [CBK115788] | 82.1507
10 | Nc1nc(OCCc2cccs2)cnc1-c1ccc(OC(F)(F)F)cc1 [CBK145116] | 58.668
11 | O=C(Nc1ccc(Cc2ccncc2)cc1)c1sc2c([N+](=O)[O-])cccc2c1Cl [CBK269635] | 88.7752
12 | Cn1c(=O)oc2cc(S(=O)(=O)Nc3cccc(CCc4ccccn4)c3)ccc21 [CBK286357] | 87.1187
13 | c1cn2cnnc2c(N2CCc3sccc3C2)n1 [CBK305180] | 82.9543
14 | Cc1nc(C)n(CC2CCCN(c3ncnc4ccsc34)C2)n1 (stereo not shown) [CBK304037] | 61.4887
15 | O=C(O)CCCNS(=O)(=O)c1ccc(I)cc1 [CBK269160] | 102.506
16 | COc1ccc(-c2ccc3c(c2)C(=O)N2CC[C@H](NC(=O)CCC(=O)O)[C@H]2C(=O)N3)cc1 [CBK289331] | 105.517
17 | COC(=O)c1c(NC(=S)Nc2ccccc2)sc(Cc2ccccc2)c1C [CBK263501] | 108.156
18 | COc1cccc(C2C(C(=O)c3ccc(Cl)cc3)=C(O)C(=O)N2CCN2CCOCC2)c1 (stereo not shown) [CBK264901] | 75.6217
19 | O=C(O)CNC(=O)/C(=C\c1ccccc1F)NC(=O)c1ccccc1 [CBK263961] | 95.8689
20 | O=S(=O)(c1ccccc1)n1c(CO)cc2c(C(F)(F)F)cc(CN3CCNCC3)cc21 [CBK143799] | 93.4473
21 | Cc1ccc(CCC(=O)N(CCC#N)C2CCOCC2)c(C)c1 [CBK305809] | 50.2187
22 | c1ccc2c(CCN3CCC(Oc4nccnc4OCCN4CCOCC4)CC3)c[nH]c2c1 [CBK082939T] | 93.1881
23 | CCc1ccc2[nH]c(=O)c(CN(CCN(C)C)C(=S)NCc3ccccc3)cc2c1 [CBK134905] | 91.6014
24 | COCCNC(=O)CC1Sc2ccccc2NC1=O (stereo not shown) [CBK268443] | 109.823
25 | COc1nc(OC)nc(Sc2ccc(N)cc2)n1 [CBK019319] | 70.3655
26 | CCC(=O)NC(=S)Nc1cccc(NC(=O)c2cccc(Cl)c2)c1 [CBK058759] | 109.525
27 | COc1ccc([C@@]23CC[C@@H](NC(=O)Nc4cccc(-c5nn[nH]n5)c4)C[C@@H]2N(C)CC3)cc1OC [CBK051273T] | 86.8041

Row | SMILES | % of control remaining
28 | CCOC(=O)c1sc(NC(=O)c2ccccc2Br)nc1C [CBK067745] | 85.6105
29 | Cn1c(N)nc2c(ncn2[C@H]2C[C@@H](O)[C@@H](CO)O2)c1=O [CBK201215] | 76.9748
30 | C#C[C@H]1C[N@@]2CC[C@H]1C[C@@H]2CNS(=O)(=O)c1cccc(C#N)c1 [CBK288753] | 97.2365
31 | CS(=O)(=O)N(CC(=O)NCc1ccccn1)c1cc(Cl)cc(Cl)c1 [CBK266459] | 107.226
32 | Cc1nn(C)c(C)c1CC(=O)NC1CCN(c2c(F)cccc2F)C1 (stereo not shown) [CBK306307] | 73.4359
33 | CNC(=O)c1ccc(-c2ccc(CNC(=O)C(C)Oc3ccc(C)c(C)c3)cc2)nc1C (stereo not shown) [CBK286014] | 100.043
34 | Cc1nn(C)c(C)c1CC(=O)Nc1nc(C(C)(C)C)cs1 [CBK250992] | 48.8318
35 | Cc1ccc(NS(=O)(=O)c2ccc(CCC(=O)N3CCc4ccccc4C3)cc2)cc1 [CBK267616] | 84.2136
36 | O=C(Nc1ccc(=O)n2c1[C@@H]1C[C@@H](CN(C(=O)c3ccc(F)cc3)C1)C2)c1cncnc1 [CBK288713] | 104.805
37 | CCOc1c(CNCCN2CCOCC2)cccc1OC [CBK278182C] | 121.156
38 | COc1cccc(CCNC(=O)NC(=O)C2CCN(S(C)(=O)=O)CC2)c1 [CBK034860] | 102.954
39 | Cc1cccc(-n2c(N)cc(=O)nc2SC(C)C(=O)Nc2ccc(S(N)(=O)=O)cc2)c1 (stereo not shown) [CBK266173] | 102.152
40 | O=C(O)C1CCCCC1C(=O)N1CCN(Cc2cccc3ccccc23)CC1 (stereo not shown) [CBK270293] | 95.9754
41 | O=C1Cc2cc3ccccc3cc2C2(CCN(C(=O)c3ccccc3C(=O)O)CC2)N1 [CBK047216] | 109.689
42 | Cc1oc(C(=O)Nc2cccc(CCc3ccncc3)c2)cc1CN1CCOCC1 [CBK285547] | 123.024
43 | C=CCN1C(=O)C2(CC(=O)N(CC)C2=O)c2cc(F)ccc21 (stereo not shown) [CBK075318] | 92.9973
44 | COc1ccc(-n2cc(-c3ccc(F)cc3)nn2)cc1 [CBK113111] | 101.838
45 | Ic1ccc2ncnc(NCCN3CCOCC3)c2c1 [CBK265655] | 85.0375
46 | COc1ccccc1NC(=O)c1ccc(OC(C)C(=O)O)cc1 (stereo not shown) [CBK266109] | 148.974
47 | CCCS(=O)(=O)N1CCN(C(=O)COc2ccc3ccccc3c2)CC1 [CBK264290] | 93.9305
48 | COc1ccc(CC(=O)N2CCC(c3cccc(Cc4cccc(F)c4)n3)CC2)cc1 [CBK286504] | 113.786
49 | O=C(c1cc[nH]n1)N1CCC2(CC1)Nc1ccccc1-n1cccc12 [CBK283652] | 83.0524
50 | Cc1cccn2c(CN3CCC(O)CC3)c(C(=O)N3CCOCC3)nc12 [CBK306546] | 92.5979
51 | O=C(NCc1cccnc1)c1ccc(-c2ccoc2)nc1 [CBK156275] | 115.822
52 | CC1CCN(Cc2ccc(-c3cn(CC(=O)NCc4ccc(Br)cc4F)nn3)cc2)CC1 [CBK165756C] | 29.8936
53 | O=C(NCCc1cccs1)Nc1ccc(Cl)c(C(F)(F)F)c1 [CBK043775] | 76.6592
54 | CCOc1nccnc1N1CCNCC1 [CBK001899G] | 65.5966

Row | SMILES | % of control remaining
55 | OC(CN1CCC2(CC1)CC(O)c1ccccc1O2)c1ccc(-c2ccccc2)cc1 (stereo not shown) [CBK286347] | 74.6764
56 | O=C(Nc1nnc(C(F)(F)F)s1)c1cc(Cl)ccc1Cl [CBK095734] | 78.7595
57 | CCCc1c(C(=O)NCCCN(C)C)cnn1-c1cc(Cl)cc(Cl)c1 [CBK107376] | 90.2626
58 | COc1cccc(NC(=O)c2sc(N)nc2-c2ccccc2)c1 [CBK072023] | 122.805
59 | CC1(C)Cc2nc(N3CCOCC3)ncc2C(NC(=O)C2CCC2)C1 (stereo not shown) [CBK306943] | 70.8927
60 | OC(COCc1ccc(Cl)cc1)CN1CCN(c2cccc(Cl)c2)CC1 (stereo not shown) [CBK278315C] | 112.669
61 | CCOC(=O)N1CCN(CC(=O)Nc2cc3c(cc2C(C)=O)OCO3)CC1 [CBK266163] | 116.745
62 | O=C1CCCN1CP(=O)(O)CN1CCCCC1 [CBK262302] | 101.617
63 | COc1ccc(Nc2cc(Cl)ccc2C(=O)Nc2ccncc2)cn1 [CBK107434] | 9.0836
64 | CC(N(C)CC(=O)NCc1ccc(OCC(N)=O)cc1)C(C)(C)C (stereo not shown) [CBK306338] | 91.4666
65 | CC(C)[C@@H](CO)Nc1nc(-c2cc(C(F)(F)F)cc(C(F)(F)F)c2)cn2ccnc12 [CBK037496] | 82.8733
66 | Cc1oc(-c2ccccc2)cc1C(=O)Nc1cc2ccccc2c(N2CCNCC2)n1 [CBK038938T] | 87.459
67 | Cc1ccc(-c2csc(NC(=O)CN3C(=O)CCC3=O)n2)c(C)c1 [CBK287348] | 127.046
68 | CCCc1nnc(SC(C)C(=O)N2CCCc3ccccc32)[nH]1 (stereo not shown) [CBK306480] | 60.369
69 | O=C(Cn1ncc2cccn2c1=O)OCC(F)(F)F [CBK283554] | 106.367
70 | COC(=O)[C@@H]1Cc2ncn(C(C)C)c2CN1C(=O)CC(C)(C)C [CBK288988] | 105.732
71 | COc1ccc(CCNC(=O)CN2CCCC2Cn2cncn2)cc1 (stereo not shown) [CBK304567] | 71.1914
72 | COc1cc2c(cc1OC)CN(S(=O)(=O)c1cc(C(=O)O)ccc1Cl)CC2 [CBK296923] | 88.5166
73 | CC(C)(CO)NC(=O)COc1ccc(Cl)cc1 [CBK261833] | 99.5618
74 | Cc1ccc(C2=CCN(CC(=O)Nc3ccccn3)CC2)o1 [CBK283634] | 104.457
75 | O=C(NCc1ccsc1)N1CCCN(Cc2ccc(Cl)cc2)CC1 [CBK305450] | 77.7599
76 | CC(C)N1CC(C(=O)N(C)C)C2(CCc3ccccc3C2O)C1 (stereo not shown) [CBK286305] | 121.38
77 | Cc1nn(C)c(C)c1CN(C)C(=O)C(C)Cn1cc(Cl)cn1 (stereo not shown) [CBK282187] | 93.9099
78 | CCc1cc(CNS(=O)(=O)Cc2cccc(F)c2)on1 [CBK283061] | 105.289
79 | OC(COc1ccc(-c2ccccc2)cc1)CN1CCN(Cc2ccccc2)CC1 (stereo not shown) [CBK074855C] | 78.6728
